Source: PubChem BioAssay AID445 (National Center for Advancing Translational Sciences (NCATS), 2006)
About 40 (0.04%) of roughly 110,000 compounds were called active. Inconclusive results, whose numbers are uncertain, are shown with a selection of clear calls. The call rests on the fitted dose curve; in most records, active means well fitted curve in the direction sought with a large enough effect in the signal ratio (not every such curve was filed as active); inconclusive means small, poorly fitted or top-dose-only effect, or a change in a side signal; inactive means flat fitted curve, though single readings scatter; the % refers to the signal ratio. Where the call is inconclusive, the potency comes from a doubtful curve fit.

Test: IkB Signaling;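 on IkBa stabilization activation: 0% = basal untreated cells and 100% = reference inhibitor full response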
Conditions: ABC-DLBCL IkBa-CBG/CBR dual luciferase ratio (green luciferase fused to IkBa over red control in OCI-Ly3 lymphoma cells), 4 h; IkBa stabilization activation: at 57.1 µM (top of the series), scaled: untreated 0%, proteasome inhibitor 100% unless noted
In short: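 Luminescence ratio of IκBα-fused green versus native red beetle luciferase in OCI-Ly3 cells, 4 h post-doxycycline with compound; red signal alone, scaled from basal (0%) to zero light (-100%), flagged nonspecific or cytotoxic effects.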
Potency means the concentration at half of the fitted maximal effect.

SMILES	IkBa stabilization activation	Potency
COc1cccc(-c2cc(C(=O)Nc3cc(C)on3)no2)c1	inactive	
Fc1ccc(Cc2cn3cc(-c4ccc(F)cc4)nc3s2)cc1	inconclusive: 4.95% [signal inhibitor]	
Cc1ccc(-c2noc(CSc3nnnn3C3CCCCC3)n2)cc1	inactive	
Cc1[nH]n(C(N)=S)c(=O)c1C(c1ccccc1)C(C#N)C#N (stereo unspecified)		inconclusive: 31.6 µM [rising, single point]
CCOc1ccc(-c2[nH]ncc2Oc2ccccc2OC)c(O)c1	inactive	
COc1ccc(NC(=O)c2ccc3oc(=O)c(S(=O)(=O)c4ccc(F)cc4)cc3c2)c(OC)c1		inconclusive: 31.6 µM [falling, single point]
CCn1nnc(NC(=O)c2cccnc2)n1	inactive	
CCOc1ccc(-n2c(SCC(=O)c3ccccc3)nc3c([nH]c4ccccc43)c2=O)cc1	inactive	
Cc1cnc(NC(=O)c2ccc(-c3nc4ccccc4s3)o2)s1	inconclusive: 2.2% [signal inhibitor]	
CCc1nnc(NC(=O)c2ccc(OC)cc2OC)s1		inconclusive: 15.8 µM [signal inhibitor, partial curve]
CCNc1ncc2nc(-c3cccs3)c(=O)n(-c3ccc(OC)cc3)c2n1	inactive: -1.4% [at 11.4 µM, scaled: untreated 0%, proteasome inhibitor 100%]	
COC(=O)c1ccc(CSc2nc3ccncc3n2Cc2ccc(F)cc2)cc1	inconclusive: 14.4% [signal inhibitor]	
COc1ccc(-c2nnc(SCc3ccccc3)n2N)cc1	inconclusive: 2.65% [signal inhibitor]	
COCC(C)Nc1ncnc2c1cnn2-c1cccc(Cl)c1 (stereo unspecified)	inconclusive: -0.918% [signal inhibitor]	
CN(C)S(=O)(=O)N1CCN(CC(O)COc2ccc(C(=O)c3ccccc3)cc2)CC1 (stereo unspecified)	inactive	
Cc1ccc(Cl)cc1N1CCN(C(=O)c2cc(S(=O)(=O)N3CCCCC3)cn2C)CC1	inconclusive: 0.606% [signal inhibitor]	
COc1ccc(C(=O)Oc2ccc(C3NC(=O)c4c(sc5c4CCN(C)C5)N3)cc2OC)cc1 (stereo unspecified)	inactive	
CCOC(=O)Cc1nnc(NC(=O)C(CC)Sc2nnc3c4ccccc4n(C)c3n2)s1 (stereo unspecified)	inactive	
O=C1c2ccccc2C(=O)N1c1cccc(-c2nc3ccccc3o2)c1	inactive	
COc1cc(-c2noc(CCCC(=O)NCc3ccco3)n2)cc(OC)c1OC	inactive	
COc1ccc(NC(=O)CSc2c(C(C)C)cnc3c2c(=O)n(C)c(=O)n3C)c(OC)c1	inactive	
O=c1cc(-c2ccccc2)[nH]n1-c1nc2ccccc2s1		inconclusive: 31.6 µM [signal inhibitor, partial curve]
COc1ccc2cc3c(N)nn(C(=O)c4ccc(F)cc4Cl)c3nc2c1	inconclusive: 4.64% [signal inhibitor]	
COc1ccc(C(=O)NCC(c2ccc3c(c2)OCO3)N2CCN(C)CC2)cc1OC (stereo unspecified)	inconclusive: 11% [signal activator]	

SMILES	IkBa stabilization activation	Potency
Cc1cc(NC(=O)CN2CCC(O)CC2)nc2c1c(=O)oc1ccccc12	inconclusive: -2.99% [signal inhibitor]	
COCCCNc1ncnc2nc[nH]c12		inconclusive: 15.8 µM [signal inhibitor, partial curve]
CCCCCCc1c(O)c2ccccc2[nH]c1=O	inactive	
CCN1CCN(c2ncnc3c2cnn3-c2ccc(F)cc2)CC1	inconclusive: -0.0354% [signal inhibitor]	
O=C(Nn1c(-c2ccccc2)nc2ccccc2c1=O)c1ccco1	inconclusive: -4.74% [signal inhibitor]	
Cc1cccc(NC(=O)CSc2nc(C)c(Cc3ccccc3)c(=O)[nH]2)c1C	inconclusive: -0.166% [signal inhibitor]	
Cc1ccc(CNC(=O)c2cc(Sc3ccc(F)cc3F)nc3ccccc23)cc1	inconclusive: -3.39% [signal inhibitor]	
CCC(C(=O)N(C)Cc1ccccc1)n1nc(C)c2sc3ccccc3c2c1=O (stereo unspecified)	inconclusive: 4.23% [signal inhibitor]	
CC(=O)c1c(C)[nH]c(C(=O)Nc2ccc(C)cn2)c1C	inactive	
CN(C)c1ccc(-c2noc(-c3ccccc3O)n2)cc1		inconclusive: 0.1 µM [signal inhibitor, full curve]
O=C(CSc1nncc2ccccc12)N1CCOCC1	inconclusive: 3.31% [signal inhibitor]	
CC(=O)N1CCCC1c1nc2ccccc2n1Cc1cc(C)ccc1C (stereo unspecified)	inactive	
CCOC(=O)N1CCN(S(=O)(=O)N2CCCC(C(=O)NCc3ccccc3OC)C2)CC1 (stereo unspecified)	inconclusive: -0.0142% [signal inhibitor]	
Cc1ccc2ccc3cc(C(=O)Nc4ccc(C)c(F)c4)nc3c2[nH]1	inconclusive: 0.0406% [signal inhibitor]	
CCOC(=O)c1ccc(CN(Cc2ccc(F)cc2)S(=O)(=O)c2cc(C(=O)Nc3ccccc3CC)ccc2F)cc1	inconclusive: 2.12% [signal inhibitor]	
CSc1ccc(/C=C/c2nc3ccccc3n2S(=O)(=O)c2ccc(F)c(C)c2)cc1		inconclusive: 12.6 µM [signal inhibitor]
CCOc1ccc(NC(=O)CC2C(=O)N(c3cccc(C)c3)C(=O)N2CCC2=CCCCC2)cc1 (stereo unspecified)	inconclusive: -0.0224% [signal inhibitor]	
CCc1ccc(CN(Cc2ccco2)C(=O)c2ccc(C)cc2)cc1	inconclusive: -0.511% [signal inhibitor]	
COc1ccccc1-c1cc(C(=O)NCc2ccc(Cl)cc2)no1	inconclusive: 11.1% [signal inhibitor]	
CCNc1nc(NC(C)C)nc(N(C#N)Cc2ccccc2)n1	inconclusive: -1.81% [signal inhibitor]	
O=S(=O)(c1ccc(Cl)cc1)c1nnn2c1nc(NCc1ccccc1)c1sccc12	inconclusive: 0.237% [signal inhibitor]	
CN1CCc2nc(N)nc(-c3nc(N)nc4c3CN(C)CC4)c2C1	inactive: 0.503% [at 11.4 µM, scaled: untreated 0%, proteasome inhibitor 100%]	
CCc1ccc(C(=O)c2cn(CC(=O)Nc3cccc(C)c3C)c3nc(C)ccc3c2=O)cc1	inconclusive: 1.5% [signal activator]	
Cc1cc(NC(=O)c2ccco2)cc(-c2nc3cc(Cl)ccc3o2)c1O	inactive	

SMILES	IkBa stabilization activation	Potency
CCOC(=O)c1oc2cccc(O)c2c1CN1CCOCC1	inactive	
CCOC(=O)N1CCc2c(sc(NC(=O)c3ccc(Cl)s3)c2C(N)=O)C1		inconclusive: 3.16 µM [signal inhibitor, partial curve]
COc1ccccc1C(=O)N(Cc1ccco1)Cc1ccccc1F	inconclusive: 0.999% [signal inhibitor]	
COc1ccc(N2CCN(C(=O)CCc3c(C)nc4cc(-c5cccc(F)c5)nn4c3C)CC2)cc1		inconclusive: 6.31 µM [signal inhibitor]
Cc1ccccc1C(=O)N1CCCCC1CCN1CCCCC1 (stereo unspecified)	inconclusive: 0.0496% [signal inhibitor]	
Cc1csc(NC(=O)c2cccc(S(=O)(=O)N3CCCCC3)c2)n1	inconclusive: 3.07% [signal inhibitor]	
Cc1ccc(/C=C/c2nc3ccccc3n2S(=O)(=O)c2ccc(Br)cc2)cc1		inconclusive: 15.8 µM [signal inhibitor, partial curve]
CC(=O)N1CCc2c(sc3c2c(=O)n(-c2ccccc2)c(=O)n3Cc2cccc(C(F)(F)F)c2)C1	inconclusive: 11.7% [signal inhibitor]	
Cc1sc2ncnc(Sc3nnnn3-c3ccccc3)c2c1C	inconclusive: 4.94% [signal inhibitor]	
COc1cccc(N=C2SC(C(=O)Nc3cccc(Cl)c3)CC(=O)N2C)c1 (stereo unspecified)		inconclusive: 39.8 µM [signal inhibitor, single point]
Cc1cccc(-n2c(=O)[nH]c3c(C(N)=O)nc(-c4ccccc4Cl)nc32)c1	inconclusive: 22.7% [signal inhibitor]	
CSc1cccc(NC(=O)CC(c2ccc(F)cc2)N2Cc3ccccc3C2=O)c1 (stereo unspecified)	inactive	
Cc1cccc(N2CCN(C(=O)CCCn3ncn4c(cc5occc54)c3=O)CC2)c1C	inconclusive: 5.95% [signal inhibitor]	
CCOc1cc(CNCCSc2nnnn2C)cc(Cl)c1OCc1ccc(Cl)cc1	inconclusive: 0.21% [signal inhibitor]	
CN(C)c1oc(-c2ccccc2F)nc1C#N	inactive	
Cn1c(=O)n(C)c2cc(N3CCOCC3)c(NS(=O)(=O)c3ccc(Br)cc3)cc21	inactive	
COc1ccc(-c2cc(C(=O)NCCc3ccccc3)c3c(-c4ccccc4)[nH]nc3n2)cc1		inconclusive: 3.98 µM [signal inhibitor, full curve]
COC(=O)C(NC(=O)c1ccccc1)=C(C)C	inactive	
Cc1ccc(Nc2nc3nonc3[nH]c2=O)cc1C		inconclusive: 31.6 µM [signal inhibitor, partial curve]
COc1ccc(Br)cc1C1CC(=O)N2CN(Cc3ccccc3)CSC2=C1C#N (stereo unspecified)	inconclusive: 6.07% [signal inhibitor]	
O=C(Cn1ncc2c(=O)oc3ccccc3c21)NCC1COc2ccccc2O1 (stereo unspecified)	inconclusive: 2.98% [signal inhibitor]	
COc1ccc(-c2nnc3sc(-c4ccco4)nn23)cc1OC		inconclusive: 39.8 µM [rising, single point]
O=C(CSC1=Nc2ccccc2N=C(c2ccc(F)cc2)C1)NCc1ccc(Cl)cc1	inconclusive: 2.79% [signal inhibitor]	
